Source: the supplement of paper PMC10441789
The other results are listed elsewhere or left out. Antibody binding of pooled human sera (four to six donors per pool; dilution not stated) to peptides of the Trypanosoma cruzi antigen TSSA on microarrays. Quantile-normalised fluorescence in arbitrary units, mean of duplicate arrays; higher = more binding. No active / inactive call. The uninfected pools are read here as the healthy donors of the same country. The strongest signals lie near the top of the scale (about 60,000).

Legend:
Assay in all cases: antibody binding signal (normalised fluorescence) (arbitrary fluorescence units); higher = stronger serum antibody binding to peptide
[1] = test system: pooled sera of chronic Chagas disease patients, Argentina
Protocol: (§1)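 Microarray of 15-residue peptides over residues 30-55 of Trypanosoma cruzi TSSAII, each with 1 to 10 substitutions at naturally variable positions, probed with one serum pool per country.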

[2] = test system: pooled sera of chronic Chagas disease patients, Bolivia
Protocol: as §1

[3] = test system: pooled sera of chronic Chagas disease patients, Brazil
Protocol: as §1

[4] = test system: pooled sera of chronic Chagas disease patients, Colombia
Protocol: as §1

[5] = test system: pooled sera of chronic Chagas disease patients, Mexico
Protocol: as §1

[6] = test system: pooled sera of chronic Chagas disease patients, USA
Protocol: as §1

[7] = test system: pooled sera of uninfected people, Argentina
Protocol: as §1

[8] = test system: pooled sera of uninfected people, Bolivia
Protocol: as §1

[9] = test system: pooled sera of uninfected people, Brazil
Protocol: as §1

[10] = test system: pooled sera of uninfected people, Mexico
Protocol: as §1

[11] = test system: pooled sera of uninfected people, USA
Protocol: as §1

Sequence	antibody binding signal [1]	antibody binding signal [2]	antibody binding signal [3]	antibody binding signal [4]	antibody binding signal [5]	antibody binding signal [6]	antibody binding signal [7]	antibody binding signal [8]	antibody binding signal [9]	antibody binding signal [10]	antibody binding signal [11]
KDNKAAAGEAPSPPG	606	243	17700	316	225	10500	364	1940	146	104	116
GTEKKPAAGETPSPP	1140	442	3840	727	1300	2710	153	978	2220	399	1020
DNKTAAGETPSQSGA	290	496	2330	395	267	261	155	237	225	212	148
KEKKAAAGETPSQPG	248	500	20600	143	122	1660	116	96.3	136	89.2	156
SGTDKKPAAGEAPSP	829	3890	27800	8250	835	14400	121	141	159	2340	134
KDNKPATGEAPSPSG	46600	35000	47700	243	200	43700	985	908	256	298	136
GKENKPAAGEAPSQP	16400	8170	41600	14300	17400	22200	644	295	153	299	102
TEKKPATGEAPSQSG	50900	45400	49800	329	416	45700	1000	620	417	305	587
SGTDKKAAAGETPSP	246	1110	3410	5690	594	2450	178	270	253	1140	632
SGKEKKTATGEAPSP	12400	5250	8550	1400	1730	17800	272	284	113	172	112
TDNKTATGGTPSPSG	452	1020	787	590	359	564	231	550	437	183	201
DKKAAAGGAPSPSGA	585	240	190	5110	745	801	227	109	160	102	124
SGKDKKPAAGETPSP	921	322	2010	1410	886	1840	134	123	86	70.7	180
KKPATGGAPSQPGAS	487	564	9040	448	399	514	349	670	106	91.4	337
STPPSGTENKTATGE	44200	45800	46000	202	2550	34200	3600	361	303	386	235
KDKKAAAGEAPSQPG	1970	1560	27800	201	211	7310	107	84.2	117	75	94.4
GKDKKPAAGGAPSPP	671	240	276	2060	1420	1390	134	88.2	113	71.7	90.8
ENKTAAGEAPSPPGA	271	1020	7630	285	365	7540	146	121	214	97.9	178
TISTPPSGTEKKPAA	44300	11500	41700	912	34400	10700	2270	1140	874	226	972
TDNKAATGEAPSPPG	23100	40200	37200	217	206	27400	152	304	190	136	89.2
GKDKKPATGEAPSPS	42300	9370	39600	2900	3130	31400	762	227	113	103	123
KEKKPAAGEAPSQSG	287	3790	8050	167	222	10000	109	80.4	105	89.6	343
SSTPPSGKDKKAAAG	7470	522	924	440	34000	743	159	353	115	128	116
TDKKAATGEAPSPPG	19500	36400	30000	357	298	21700	646	122	232	138	169
GKENKTATGGTPSPP	2260	486	7640	3890	4100	12800	472	119	122	196	116
KDNKTAAGETPSPPG	980	275	508	2210	270	890	535	273	237	226	1120
DKKPATGETPSQPGA	35100	17000	40500	189	201	22000	264	919	291	1630	195
